Measurements from PubChem BioAssay AID206 (DTP/NCI, 2004).
Inconclusive results are not listed. A number of entries come with more than one value. Only these are listed. The source may hold further records. The records of an entry are repeated measurements (runs, samples, wells, individuals or studies).

Tested on: nude mice, HT29 intrarenal xenograft, tumor weight T/C
Test: NCI In Vivo Anticancer Drug Screen. Data for tumor model HT29;CX-1 Human Adenocarcinoma (MER+) (intrarenal inoculation) in NU/NU Swiss (nude) mice
Details: endpoint: mean tumor weight change, higher = larger tumour
Procedure: The antitumor activity of compounds was measured in mice bearing transplantable tumors. Survival or tumor size were measured and the results are expressed as the measurement made in the treated group (T) divided by the measurement made in the vehicle treated control group (C). The tumor model used in this assay is HT29;CX-1 Human Adenocarcinoma (MER+) (intrarenal inoculation) in NU/NU Swiss (nude) mice

ClC(Cl)(Cl)C1=NCc2nnn(Cc3ccccc3)c2N1
T/C (dose: 225.0 mg/kg/injection, schedule: Q04DX004 (sc), vehicle: saline with Tween-80): 30 % of control and 105 % of control | T/C (dose: 450.0 mg/kg/injection, schedule: Q04DX004 (sc), vehicle: saline with Tween-80): 82 % of control and 112 % of control | T/C (dose: 900.0 mg/kg/injection, schedule: Q04DX004 (sc), vehicle: saline with Tween-80): 14 % of control and 83 % of control | T/C (dose: 1800.0 mg/kg/injection, schedule: Q04DX004 (sc), vehicle: saline with Tween-80): 63 % of control and 93 % of control

CNC(=O)ON(C(C)=O)C(=O)NC
T/C (dose: 100.0 mg/kg/injection, schedule: Q04DX004 (sc), vehicle: saline): 40 % of control and 75 % of control

COc1cc(NS(C)(=O)=O)ccc1Nc1c2ccccc2nc2ccccc12
T/C (dose: 3.0 mg/kg/injection, schedule: Q01DX010 (sc), vehicle: lactic acid): 35 % of control and 90 % of control

BrCC[Se]c1ccccc1
T/C (dose: 50.0 mg/kg/injection, schedule: Q04DX004 (sc), vehicle: saline with Tween-80): 19 % of control and 91 % of control | T/C (dose: 100.0 mg/kg/injection, schedule: Q04DX004 (sc), vehicle: saline with Tween-80): 34 % of control and 159 % of control | T/C (dose: 400.0 mg/kg/injection, schedule: Q04DX004 (sc), vehicle: saline with Tween-80): 38 % of control, 73 % of control, 111 % of control

COc1cc2cc(c1Cl)N(C)C(=O)CC(OC(=O)C(C)C)C1(C)OC1C(C)C1CC(O)(NC(=O)O1)C(OC)/C=C/C=C(C)C2 (centres undefined)
T/C (dose: 62.5 micrograms/kg/injection, schedule: Q04DX004 (sc), vehicle: saline + alcohol): 59 % of control, 66 % of control, 156 % of control | T/C (dose: 125.0 micrograms/kg/injection, schedule: Q04DX004 (sc), vehicle: saline + alcohol): 42 % of control and 79 % of control | T/C (dose: 250.0 micrograms/kg/injection, schedule: Q04DX004 (sc), vehicle: saline + alcohol): 4 % of control, 38 % of control, 44 % of control

CNNCc1ccc(C(=O)NC(C)C)cc1
T/C (dose: 100.0 mg/kg/injection, schedule: Q01DX010 (sc), vehicle: saline): 25 % of control, 40 % of control, 89 % of control | T/C (dose: 400.0 mg/kg/injection, schedule: Q01DX010 (sc), vehicle: saline): 8 % of control, 41 % of control, 93 % of control

Clc1ccc(CN2COc3c(ccc4cccnc34)C2)cc1Cl
T/C (dose: 200.0 mg/kg/injection, schedule: Q01DX010 (sc), vehicle: saline with Tween-80): 80 % of control, 113 % of control, 182 % of control | T/C (dose: 800.0 mg/kg/injection, schedule: Q01DX010 (sc), vehicle: saline with Tween-80): 11 % of control, 50 % of control, 53 % of control | T/C (dose: 1600.0 mg/kg/injection, schedule: Q01DX010 (sc), vehicle: saline with Tween-80): 41 % of control and 71 % of control

C=CC(=O)NCNC(=O)C=C
T/C (dose: 50.0 mg/kg/injection, schedule: Q01DX010 (sc), vehicle: saline): -20 % of control, 66 % of control, 73 % of control

CCCCCCCCCCCCCCCCCC(=O)Nc1ccn(C2OC(CO)C(O)C2O)c(=O)n1 (centres undefined)
T/C (dose: 600.0 mg/kg/injection, schedule: Q04DX004 (sc), vehicle: saline with Tween-80): 3 % of control and 53 % of control

CC(C)NC(=O)OCc1c(COC(=O)NC(C)C)c(-c2ccc(Cl)c(Cl)c2)n2c1CCC2
T/C (dose: 400.0 mg/kg/injection, schedule: Q01DX010 (sc), vehicle: distilled water + Tween-80): 18 % of control and 65 % of control

COP12(OCCO1)SC(C(F)(F)F)=C(C(F)(F)F)S2
T/C (dose: 125.0 mg/kg/injection, schedule: Q04DX004 (sc), vehicle: saline with Tween-80): -11 % of control, 68 % of control, 95 % of control | T/C (dose: 250.0 mg/kg/injection, schedule: Q04DX004 (sc), vehicle: saline with Tween-80): 6 % of control, 46 % of control, 99 % of control | T/C (dose: 500.0 mg/kg/injection, schedule: Q04DX004 (sc), vehicle: saline with Tween-80): 13 % of control, 84 % of control, 155 % of control | T/C (dose: 1000.0 mg/kg/injection, schedule: Q04DX004 (sc), vehicle: saline with Tween-80): 44 % of control and 121 % of control
